Measurements: article PMC4336329 (PLoS ONE, 2015)
In all, about 310,000 compounds went through this assay and about 2,200 (0.71%) showed an effect of 50% or more. Effects have a minus sign here. The list shows a part of the results.

Biological target: human ether-à-go-go-related gene (hERG) potassium channel (human, UniProt Q12809)
Assay: primary screen, population patch clamp on CHO cells stably expressing hERG

Sequence of human ether-à-go-go-related gene (hERG) potassium channel (Q12809 whole entry, looked up): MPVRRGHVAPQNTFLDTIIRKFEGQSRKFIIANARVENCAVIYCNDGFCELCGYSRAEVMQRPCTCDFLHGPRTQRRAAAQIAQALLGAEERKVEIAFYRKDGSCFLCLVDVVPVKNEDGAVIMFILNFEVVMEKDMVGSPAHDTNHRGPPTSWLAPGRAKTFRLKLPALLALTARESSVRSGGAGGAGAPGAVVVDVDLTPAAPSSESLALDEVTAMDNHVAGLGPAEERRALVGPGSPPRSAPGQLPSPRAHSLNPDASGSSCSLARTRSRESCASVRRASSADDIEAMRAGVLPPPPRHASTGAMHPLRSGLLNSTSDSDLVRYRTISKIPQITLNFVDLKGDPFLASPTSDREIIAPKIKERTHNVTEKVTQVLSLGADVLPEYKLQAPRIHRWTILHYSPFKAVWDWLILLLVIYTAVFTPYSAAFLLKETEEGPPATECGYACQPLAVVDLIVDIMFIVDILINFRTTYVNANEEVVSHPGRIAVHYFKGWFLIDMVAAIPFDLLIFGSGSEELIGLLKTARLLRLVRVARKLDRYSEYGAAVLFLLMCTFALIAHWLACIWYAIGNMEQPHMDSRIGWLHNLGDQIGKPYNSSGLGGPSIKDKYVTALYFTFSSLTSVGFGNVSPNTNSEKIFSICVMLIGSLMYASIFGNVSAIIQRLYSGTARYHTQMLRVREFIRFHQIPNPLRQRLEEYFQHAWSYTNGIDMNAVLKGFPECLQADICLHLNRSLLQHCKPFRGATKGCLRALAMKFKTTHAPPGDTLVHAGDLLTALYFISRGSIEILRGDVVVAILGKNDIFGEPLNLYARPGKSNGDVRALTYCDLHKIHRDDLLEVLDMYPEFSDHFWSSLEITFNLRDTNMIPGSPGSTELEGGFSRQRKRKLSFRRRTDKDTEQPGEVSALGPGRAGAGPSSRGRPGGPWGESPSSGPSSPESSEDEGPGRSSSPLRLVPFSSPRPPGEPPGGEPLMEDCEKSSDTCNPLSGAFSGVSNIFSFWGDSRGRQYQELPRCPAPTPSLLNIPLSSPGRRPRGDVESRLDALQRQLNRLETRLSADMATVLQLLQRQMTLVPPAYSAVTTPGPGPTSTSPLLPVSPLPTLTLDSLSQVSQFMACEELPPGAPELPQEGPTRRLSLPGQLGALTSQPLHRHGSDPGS

Row | SMILES | hERG current change (%, negative = inhibition) at 1uM [%]
1 | O=C(NCc1ccc(OC(F)(F)F)cc1)C1CC2Cn3c(nc4ccccc43)C2N1Cc1ccccc1 (stereo not drawn) | -23.1
2 | C=CCn1c(O)c(C(C)=NC2CCN(Cc3ccccc3)CC2)c(=O)[nH]c1=O | -11.7
3 | CC(=O)N(CCN(C(C)=O)c1ccccc1)c1ccccc1 | 3.2
4 | CCCCNC(=O)CC1N=C2c3ccccc3N=C(SCC(=O)Nc3cccc(OC)c3)N2C1=O (stereo not drawn) | 7.61
5 | CN(C)c1ccc(S(=O)(=O)NCC(=O)OCC(=O)Nc2cc(Cl)cc(Cl)c2)cc1[N+](=O)[O-] | 9.38
6 | O=C(NCN1C(=O)C2C3C=CC(C3)C2C1=O)Nc1nccs1 (stereo not drawn) | 14.7
7 | Cc1c(NC(=O)c2cc(=O)[nH]c(=O)[nH]2)c(=O)n(-c2ccccc2)n1C | 5.24
8 | Cl.O=C1CSC(c2ccc([N+](=O)[O-])cc2)N1CCN1CCCCC1 (stereo not drawn) | -44.8
9 | CC(C)(C)n1nc2c(c1NC(=O)c1ccc(Br)o1)CS(=O)C2 (stereo not drawn) | 7.8
10 | O=C(Nc1cccnc1)C1(c2ccc(Cl)cc2)CCCC1 | 4.42
11 | COc1ccccc1C(=O)NCCc1nc2ccccc2n1C | 5.68
12 | O=C(NC(Cc1c[nH]c2ccccc12)C(=O)N1CCOCC1)c1cccs1 (stereo not drawn) | 11.2
13 | Cc1cc(C)c(C(=O)C(C)OC(=O)C2=COCCO2)cc1C (stereo not drawn) | 5.17
14 | O=C(NN1CCOCC1)c1ccc(S(=O)(=O)N2CCCCC2)cc1 | 3.4
15 | Cc1ccc(S(=O)(=O)NCc2ccccn2)cc1C | 7.3
16 | CN1CCN(Cc2c(O)c(Cl)cc3c(-c4ccccc4)cc(=O)oc23)CC1 | 11.4
17 | Cc1ccc2c(c1)c(C)cc[n+]2Cc1ccccc1.[Cl-] | 9.1
18 | Cc1cc2cc(CCNC(=O)c3ccc(S(=O)(=O)N4CCOCC4)cc3)c(=O)[nH]c2cc1C | 14
19 | O=C(CNC(=O)c1ccc(=O)[nH]c1)Nc1ccc(F)c(F)c1 | 13.1
20 | Cc1ccc(S(=O)(=O)/N=c2\ccc(Cl)cn2C(F)F)cc1 | 7.56
21 | COc1ccc(NC(=O)CN(c2ccc(OC)cc2)S(=O)(=O)c2ccc(OC)c(OC)c2)cc1 | 7.76
22 | Cc1cc(C)cc(Oc2ccccc2/C=N\O)c1 | -4.76
23 | CC1(C(=O)N2CCN(c3ccc([N+](=O)[O-])cc3)CC2)CC1(Cl)Cl (stereo not drawn) | -64.3

Row | SMILES | hERG current change (%, negative = inhibition) at 1uM [%]
24 | CC/C(C)=N/Nc1nc2sc3c(c2c(=O)[nH]1)CC(C)(C)OC3 | 2.47
25 | COc1ccc(C2CC(c3cccs3)=Nc3ccccc3S2)cc1 (stereo not drawn) | -10.1
26 | CCOC(=O)C(=CNc1ccc(NC2=NCC(C)(C)S2)cc1)C(=O)OCC | 4.88
27 | Cc1ccc(Cl)cc1NC(=O)COC(=O)C1CCCCC1 | 8.25
28 | COc1ccc(-n2cc(CNCCCn3ccnc3)c(-c3cccc(F)c3)n2)cc1 | -6.96
29 | CN(C)CCCOC(=O)c1ccc(Cl)cc1 | 9.55
30 | C=CCN1C(=O)CS/C1=C(\C#N)S(=O)(=O)c1ccc(C)cc1 | 0.686
31 | COC(=O)CN1CCN(C(=O)c2ccc(F)cc2)c2ccccc2C1 | 10.2
32 | O=C(O)CCn1cc(/C=C2\SC(=S)NC2=O)c(-c2ccccc2)n1 | 19.7
33 | Cc1nn2c(=O)cc(CSc3nc4ccccc4[nH]3)nc2s1 | 13.7
34 | Cc1cc(C(=O)N2CCN(c3ncccn3)CC2)c(C)o1 | 18.6
35 | COc1ccc(CN2CCCCC2C)c(C)c1C (stereo not drawn) | 2.37
36 | COc1cccc(CN2CC(C(=O)NCCOc3ccccc3)CCC2=O)c1 (stereo not drawn) | 11.7
37 | CCN(CC)S(=O)(=O)c1ccc2[nH]cc(C(=O)NCCN3CCCCC3C)c(=O)c2c1 (stereo not drawn) | -9.38
38 | COc1ccc(C(=O)c2c3ccc(OC)cc3[n+]([O-])n2Cc2ccc(C(N)=O)cc2)cc1 | 3.99
39 | O=C(c1ccc(Cl)c(S(=O)(=O)N2CCc3ccccc3C2)c1)N1CCN(c2ccccc2)CC1 | 9.22
40 | CNc1ccc2nnc(C(F)(F)C(F)(F)C(F)(F)F)n2n1 | 11.6
41 | CC(C)NC(=O)NC(=O)CSc1nnc(-c2c[nH]c3ccccc23)o1 | 13.5
42 | O=C(COc1ncnc2ccccc12)Nc1cccc([N+](=O)[O-])c1 | 1.36
43 | Cc1cc(C)n(-c2nc(SCCN(C)C)c3c4c(sc3n2)COC(C)(C)C4)n1 | -30.4
44 | O=C(CSc1nc2ccccc2o1)N1CCCC1 | 5.8
45 | COC(=O)COc1ccc(NC(=O)C2CCCO2)cc1 (stereo not drawn) | 14.3
